# Assay results taken from PubChem BioAssay AID588579 (National Center for Advancing Translational Sciences (NCATS), 2011).
# Where “and” joins values, the source holds several entries; their conditions need not be identical. Equal entries are not always repeated. The campaign covered roughly 400,000 compounds. About 2,200 (0.55%) were called active. This list was built around the results that the source calls inconclusive (neither active nor inactive); the mix of calls is not that of the screen. Calls follow the shape of the dose curve; as a rule, active = well fitted inhibition curve with a large enough effect; inconclusive = small, poorly fitted or top-dose-only effect, or another doubt; inactive = no such curve, though single readings can be large or run the other way. Where the call is inconclusive, the potency comes from a doubtful curve fit. Some structures have more than one record in an assay (separate samples or runs), and their calls can disagree.
# Target: DNA polymerase kappa (Homo sapiens) (UniProt Q9UBT6)
# Sequence of UniProt Q9UBT6 (Q9UBT6 whole entry, looked up): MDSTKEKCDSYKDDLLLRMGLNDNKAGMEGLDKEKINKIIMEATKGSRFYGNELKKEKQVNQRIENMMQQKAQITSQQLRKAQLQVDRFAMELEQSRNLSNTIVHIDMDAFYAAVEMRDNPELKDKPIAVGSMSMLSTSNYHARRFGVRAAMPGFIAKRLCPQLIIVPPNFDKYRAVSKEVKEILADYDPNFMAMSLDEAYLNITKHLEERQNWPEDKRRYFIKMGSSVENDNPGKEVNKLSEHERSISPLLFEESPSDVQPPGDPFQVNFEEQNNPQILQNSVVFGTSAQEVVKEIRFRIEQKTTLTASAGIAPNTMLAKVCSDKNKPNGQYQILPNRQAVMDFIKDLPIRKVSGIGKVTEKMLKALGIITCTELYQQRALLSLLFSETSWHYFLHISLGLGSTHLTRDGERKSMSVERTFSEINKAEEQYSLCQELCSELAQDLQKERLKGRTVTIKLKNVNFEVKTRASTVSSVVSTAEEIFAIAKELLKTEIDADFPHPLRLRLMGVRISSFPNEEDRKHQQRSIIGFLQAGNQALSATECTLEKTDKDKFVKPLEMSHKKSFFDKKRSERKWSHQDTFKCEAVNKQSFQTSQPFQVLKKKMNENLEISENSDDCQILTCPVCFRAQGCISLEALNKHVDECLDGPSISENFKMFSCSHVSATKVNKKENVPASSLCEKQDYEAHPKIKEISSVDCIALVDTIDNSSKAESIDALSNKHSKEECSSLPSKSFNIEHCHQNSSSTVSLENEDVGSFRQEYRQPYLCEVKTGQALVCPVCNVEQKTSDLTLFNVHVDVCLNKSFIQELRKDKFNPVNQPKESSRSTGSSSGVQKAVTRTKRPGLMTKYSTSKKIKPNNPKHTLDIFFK
# Test: qHTS for Inhibitors of Polymerase Kappa
# Conditions: purified Pol kappa, fluorescent DNA synthesis assay, 10 min; series mostly up to 107 µM
# Summary of the method: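 First, compounds were pin-transferred onto 10 nM Pol kappa. After 15 min at room temperature, substrate was added to 50 nM final. Fluorescence was then measured kinetically at 0 and 10 min.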
# % is scaled to controls: 0 for no effect and ±100 for the full control effect; potency is read from the fitted curve at half-maximal effect; tags tell the direction and shape of the fitted curve.
SMILES,Potency,"activity, negative = inhibition"
COc1ccccc1N1CCN(C(=O)c2cnn(C(C)(C)C)c2C2CCN(C(=O)OC(C)(C)C)CC2)CC1,inactive,
COC(=O)c1ccc2c(c1)C(=O)/C(=C/c1ccc(O)cc1)O2,"inconclusive: 79.4 µM [inhibitor, partial curve, poor fit]",
COC(=O)c1cc(O)cc(OC)c1Oc1cc(C)cc(O)c1C(=O)O,active: 11.2 µM,
O=C(O)COc1ccc(/C=N/NC(=O)c2ccc(-c3csc(Nc4ccc(Cl)cc4)n3)cc2)cc1,active: 7.94 µM,
COc1ccccc1/C=C1\SC(=S)N(CCC(=O)NNC(=O)c2ccccc2O)C1=O,"inconclusive: 100 µM [inhibitor, partial curve, poor fit]",
CC(NS(=O)(=O)c1ccc2c(c1)C(C)(C)C(=O)N2C)c1ccccc1 (centres undefined),"inconclusive: 28.2 µM [inhibitor, single point]",
CCCNCc1cc(OC)c(OCCC)cc1Cl,inactive,
Cc1ccc(/C=C/C(=O)Nc2ccc(N(C)C)cc2)o1,inactive,
CC(C)CC(=O)Nc1ccccc1Oc1ccccc1,"inconclusive: 89.1 µM [inhibitor, single point]",
CCC1=NN2C(=N)/C(=C\c3ccc(SCc4ccco4)o3)C(=O)N=C2S1,"inconclusive: 89.1 µM [inhibitor, single point]",
O=[N+]([O-])c1ccc(C=NNC(=S)Nc2ccc(F)cc2)cc1,inactive,
CN(CCC#N)C(=O)COC(=O)c1c2c(nc3ccccc13)/C(=C/c1ccco1)CC2,active: 20 µM,
COc1ccc2nc3cc(Cl)ccc3c(NCCCN3CCN(CCCNc4c5ccc(Cl)cc5nc5ccc(OC)cc45)CC3)c2c1,"inconclusive: 4.23 µM [inhibitor, full curve, poor fit]",
C[C@](N)(Cc1ccc(O)c(O)c1)C(=O)O,active: 3.36 µM and active: 8.91 µM and active: 2.67 µM,
CCOCCc1nn2c(=O)cc(COC(=O)c3cccc(C)c3)nc2s1,inactive,
CCC1=C(c2ccc(C)cc2)S(=O)(=O)N=C1N1CCC(C(=O)NCc2ccc(C)cc2)CC1,"inconclusive: 89.1 µM [inhibitor, single point]",
COc1cc(/C=C2/C(=O)NN(c3cccc(C)c3)C2=O)cc([N+](=O)[O-])c1O,"inconclusive: 56.2 µM [inhibitor, partial curve, poor fit]",
c1nc(NC2CC2)c2cc(-c3ccoc3)ccc2n1,"inconclusive: 28.2 µM [inhibitor, single point]",
COC1=CC(=O)CC(C)C12Oc1cc(OC)cc(OC)c1C2=O (centres undefined),"inconclusive: 100 µM [inhibitor, single point]",
O=C(Nc1nccs1)c1cn(-c2ccccc2)nc1-c1ccncc1,"inconclusive: 17.8 µM [inhibitor, full curve, poor fit]",
O=C(O)c1cccc(-n2cccc2/C=C2/NC(=O)N(Cc3ccccc3F)C2=O)c1,"inconclusive: 79.4 µM [inhibitor, partial curve, poor fit]",
OC[C@@H]1[C@@H](c2ccc(F)cc2)C(c2ccccc2)=NN1c1ccccc1,"inconclusive: 56.2 µM [inhibitor, single point]",
O=[N+]([O-])c1ccccc1N/N=C/c1cccc(O)c1O,inactive,

SMILES,Potency,"activity, negative = inhibition"
COc1ccccc1-c1nc(-c2ccccc2)nc(N2CCN(C)CC2)c1C#N,"inconclusive: 89.1 µM [inhibitor, partial curve, poor fit]",
COc1ccccc1CNC(=O)CCC(=O)N1Cc2ccccc2Oc2ncccc21,inactive,
O=C(O)/C(=C\c1ccc(Cl)c([N+](=O)[O-])c1)c1ccc(S(=O)(=O)N2CCCC2)s1,"inconclusive: 79.4 µM [inhibitor, single point]",
O=C(O)c1ccc(N2C(=O)c3cccc4c(C(=O)O)ccc(c34)C2=O)cc1,active: 20 µM,
CC(C)Oc1ccc(C(=O)Nc2nnc(C3=COCCO3)o2)cc1,inactive,
CCOC(=O)c1ccc(CC(=O)c2ccc(O)c(O)c2O)o1,active: 1.58 µM,
CCSc1nc2c(c(=O)n(C)c(=O)n2C)n1Cc1ccc(Cl)cc1,inactive,
COc1ccc(S(=O)(=O)/N=C2/NC(=O)/C(=C\c3ccco3)S2)cc1,"inconclusive: 89.1 µM [inhibitor, partial curve, poor fit]",
CCCc1cc(=O)[nH]c(SCC(=O)N2N=C(c3ccc(Cl)cc3)CC2c2ccco2)n1 (centres undefined),inactive,
CCOC(=O)c1c(NC(=O)C2C3C=CC(C3)C2(C)C(=O)O)sc2c1CCCC2 (centres undefined),"inconclusive: 89.1 µM [inhibitor, partial curve, poor fit]",
CCOC(=O)C(C(=O)OCC)c1cc(Br)c2noc3c2c1C(=O)c1ccccc1-3,"inconclusive: 89.1 µM [inhibitor, partial curve, poor fit]",
COc1cccc(NC(=O)Nc2nc(-c3ccc(OC)c(OC)c3)cs2)c1,"inconclusive: 89.1 µM [inhibitor, single point]",
Cc1cc(=O)[nH]c2nnc(SCc3c(F)cccc3Cl)n12,inactive,
Cc1ccnc(NC(=O)CS(=O)(=O)c2ccccc2)c1,inactive,
Cn1c(=O)c2c(ncn2CC(=O)NCc2cccnc2)n(C)c1=O,inactive,
O=C(CCNS(=O)(=O)c1ccccc1F)OCc1ccccc1Cl,inactive,
COc1cc(O)c(C(CC(=O)N2CCCC2)c2cc(OC)c(OC)c(OC)c2)c(OC)c1 (centres undefined),"inconclusive: 100 µM [inhibitor, partial curve, poor fit]",
CC(=O)Oc1ccc(N2C(=O)C3C4C=CC(C5CC45)C3C2=O)cc1[N+](=O)[O-] (centres undefined),"inconclusive: 79.4 µM [inhibitor, single point]",
O=C(/C=C/c1ccco1)NC(=S)Nc1ccccc1Br,active: 50.1 µM,
C=C1C=C(C(F)F)n2ncc(C(=O)NCCc3ccccc3OC)c2N1,inactive,
COCCCn1c(=N)c(C(=O)NCc2ccco2)cc2c(=O)n3cccc(C)c3nc21,"inconclusive: 79.4 µM [inhibitor, partial curve, poor fit]",
CCc1ccccc1NC(=O)Nc1cc(C(=O)NCc2cccc(F)c2)ccc1N1CCCC1,inactive,
O=C(O)C(c1ccccc1)N1C(=O)/C(=C\c2ccc(-c3cccc(Cl)c3)o2)SC1=S (centres undefined),"inconclusive: 39.8 µM [inhibitor, single point]",

SMILES,Potency,"activity, negative = inhibition"
NS(=O)(=O)c1ccc(N=Nc2c[nH]c(=O)c(O)c2)cc1,"inconclusive: 56.2 µM [inhibitor, partial curve, poor fit]",
Cc1nn(-c2ccccc2)c2c1cc1c(=O)[nH]c(=O)nc-1n2-c1cccc(Cl)c1,inactive,
Cc1cc(C)nc(N/C=C(\C#N)C(=O)c2cccc(CSc3ccccc3)c2)n1,"inconclusive: 89.1 µM [inhibitor, partial curve, poor fit]",
COc1cc(C(=O)Nc2ccc3c(c2)OCCO3)ccc1OC(F)F,"inconclusive: 89.1 µM [inhibitor, partial curve, poor fit]",
CCC1=C2CC[C@H]3C(=O)N(c4ccccc4)C(=O)[C@H]3[C@H]2[C@@]2(C)C(=NCc3ccccc3)OC(=O)N2C1=O,"inconclusive: 100 µM [inhibitor, single point]",
CCOc1cc(/C=C2\SC(=S)N(Nc3ccccc3)C2=O)ccc1O,"inconclusive: 20 µM [inhibitor, partial curve, poor fit]",
Cc1ccc(-c2cc(C(=O)OCC(=O)N(C)c3c(N)n(Cc4ccccc4)c(=O)[nH]c3=O)c3ccccc3n2)o1,inactive,
Cc1nc2ccccc2n1CC(=O)c1ccc(O)c(O)c1,"inconclusive: 10 µM [inhibitor, full curve]",
Cc1ccc(CN(Cc2cc3cc4c(cc3[nH]c2=O)OCCO4)Cc2nnnn2Cc2ccco2)cc1,active: 70.8 µM,
O=C(COC(=O)c1ccc2c(c1Cl)C(=O)c1ccccc1C2=O)NC1CCCCC1,inactive,
O=C(/C=C/c1ccco1)c1cccnc1,"inconclusive: 31.6 µM [inhibitor, single point]",
CCN(CC)S(=O)(=O)c1cc(NC(=O)CN2C(=O)NC(C)(c3ccccc3)C2=O)ccc1C (centres undefined),inactive,
CCCCCCCCCCCCCC[C@@H](O)[C@@H](O)[C@@H](N)CO,"inconclusive: 29.9 µM [inhibitor, single point]",
CN(/C=C/C(=C/C=[N+](C)c1ccccc1)OCCCS(=O)(=O)[O-])c1ccccc1,"inconclusive: 28.2 µM [inhibitor, single point]",
COc1ccc(-c2cn3nc(N4CCCC(C(=O)Nc5cccc(OC)c5)C4)sc3n2)cc1 (centres undefined),inactive,
CCN(CC)CCCN1C=C2C(=O)C(C)(OC(=O)CCC(=O)OC)C(=O)C(Br)=C2C=C1c1ccc(OC)cc1 (centres undefined),"inconclusive: 63.1 µM [inhibitor, partial curve, poor fit]",
Cc1ccnc2ccc(N)cc12,inactive,
Cc1[nH]n(-c2ncc(-c3ccc(Cl)cc3)s2)c(=O)c1C(c1ccc(Cl)cc1)C(C#N)C#N (centres undefined),"inconclusive: 89.1 µM [inhibitor, single point]",
CC1(C)N([O-])C2=C(CCCC2)[N+]1=O,"inconclusive: 100 µM [inhibitor, single point]",
COc1cc2c(Nc3ccc(Br)cc3F)ncnc2cc1OCC1CCN(C)CC1,,inactive: 9.07% [at 19.4 µM]
Cc1cc(C)n(Cc2ccc(C(=O)O)cc2)n1,inactive,
CCOC(=O)N1CCN(c2cc(NCCC(=O)O)c3c4c(onc24)-c2ccccc2C3=O)CC1,active: 17.8 µM,
CN(C)CCNC(=O)c1ccc2c(c1)NC(=O)C(CS(=O)(=O)Cc1cccc(Br)c1)N2 (centres undefined),inactive,
